Results: the supplement of paper PMC11417369
± gives the standard deviation of the averaged measurements. This is one part of the list.

tested on: PfAP2-G AP2 domain (GST-tagged); assay: gcPBM binding intensity (ln(normalized median fluorescence intensity)); higher = stronger DNA binding
Outline: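 GST-tagged P. falciparum DNA-binding domains produced in E. coli were incubated for 1 h on an Agilent 4 × 180k array of primer-extended double-stranded 36-bp intergenic genomic probes with negative controls. Binding intensity is the highest Masliner-normalised natural-log median intensity across replicate spots of either probe orientation, with bound protein detected by Alexa488 anti-GST antibody at 488 nm.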

| Sequence | gcPBM binding intensity (ln) |
| --- | --- |
| AAGAAAAGAACAAGAGCATGCACTTAATAAGAATAA [TGCATGCA_site818] | 9.76 ± 0.15 |
| TTAATATATTTTAAAAGTACATAATATTATTTTTTA [XGTACX_site3642] | 11.1 ± 0.78 |
| ATATTTTTATGTACTTCAAAAAAAAAGAAAAACAAA [CACACA_negctrl_site970] | 11.5 ± 1 |
| CTCTATTGTTAAAAGGTGCTTTTATGATTTTATATA [GTGCAC_site9409] | 9.89 ± 0.17 |
| AAAAAAAACAGACACACACACATACAAAATATATAT [CACACA_site1449] | 10.1 ± 0.26 |
| TTTAAATACAGACATACACACATACACAGACATATA [CACACA_site4460] | 10.2 ± 0.18 |
| ATAATTTCACAAATAGTGCAAAAATTAGTAAGAATA [GTGCAC_site9648] | 10.1 ± 0.2 |
| TTTTTTTTCTATGTGGTGCACATTATTTTTTTTTTT | 10.5 ± 0.3 |
| TTTTATAAATATTATACATGCATAATGATAAAAAAA [TGCATGCA_site927] | 9.845 ± 0.078 |
| TATGTAACCTGTTTTACACACCCCCACCCCCCTCTT [CACACA_site319] | 11.5 ± 0.79 |
| AAGAGGTTAATGAAATGTACACATATATATATATAT [XGTACX_site1861] | 11.4 ± 0.82 |
| TATAGTTTTGAAAACAAACACACAAAAAAAAAAAAA [CACACA_site1691] | 9.86 ± 0.39 |
| AAATATATGTATATATGTACATATGTGTGCTATCAT [XGTACX_site1604] | 11 ± 0.57 |
| TATATATATATATGTAGTACTCAATATTGTAGATTA [XGTACX_site3856] | 11.3 ± 0.88 |
| GTTTACATTTTAAGAAGTACAAAATTTATGGTTAAA [XGTACX_site450] | 11.3 ± 0.8 |
| TAATTTTTTTTTAATTGTACATGTGAATATATTTCA [XGTACX_site4115] | 11 ± 0.67 |
| GCCATAATATGACATACACACACAAAAAAAAAAAAA [CACACA_site8353] | 9.99 ± 0.4 |
| AAATTTCCATTTGGGTGTACATGTGAAACTACAAAG [XGTACX_site208] | 11.4 ± 0.97 |
| ATACATACAAAAATTTGTACATATTTCCAATAATGT [XGTACX_site2658] | 11 ± 0.51 |
| GAAAAAACGAAAAAAATACACACCTGAAAAGATATG [CACACA_site887] | 9.95 ± 0.028 |

| Sequence | gcPBM binding intensity (ln) |
| --- | --- |
| AAAAATAAACAAAATTGTACACATTACATACATATA [XGTACX_site966] | 11.2 ± 0.61 |
| AAACAATTGAATAAATGTACAGATACATTTTTTTAA [XGTACX_site5386] | 11 ± 0.64 |
| TATTTATCTATTTTGTTATATAATAAAATAAAATAA [CACACA_negctrl_site281] | 9.88 ± 0.38 |
| TTTTCCCTCTTATTCACACAAAAAAAATAAAATAAA [CACACA_site4656] | 9.99 ± 0.23 |
| ACACTAACATCATATCGTACATTTGTTAATTTATAA [XGTACX_site8654] | 10.8 ± 0.48 |
| TATTTATTTTTTTTTGTGCACTTAATATAATCTTAC | 10.4 ± 0.21 |
| TCTTTTAAAAAAATTTGTACATATTTTTTGTATTAT [XGTACX_site67] | 11.1 ± 0.7 |
| TTCTTAATATTGCATGCACACTATATAATAATTGAA [CACACA_site4720] | 10 ± 0.42 |
| TTTTTATTTATATGATACTTATATATATATATATAT [CACACA_negctrl_site462] | 10.2 ± 0.35 |
| GATTGATTATATGTGTGTACTTATATGTTAAAAAAA [XGTACX_site4784] | 11.5 ± 0.89 |
| TATGAATATCTATACACACACATATATATACCCACT [CACACA_site4963] | 10.3 ± 0.26 |
| TGTTCTTTGTTCAGCGCATGTAAAATAAAATAAAAT [TGCATGCA_site629] | 10.4 ± 0.7 |
| TTTTTTTTTGAATACAGTACACAAGTGTTAAGTTTA [XGTACX_site7069] | 11.2 ± 0.84 |
| AGGAGGATGCATATGGCACACATTATGAAACTGTCG [CACACA_site299] | 10.05 ± 0.028 |
| GAAAGAATAAAATTTACACACATATAAATATACATA [CACACA_site7125] | 9.78 ± 0.057 |
| TATTTGAAAACATAGGTGCACATTATTTTATAATCT [GTGCAC_site9947] | 10.3 ± 0.3 |
| AAAGGTGTCATATATGCACACAAAAGTAACACGCAC [CACACA_site8051] | 10.5 ± 0.18 |
| TTTATTCTTGAGTATTGTACATATGTGTTTGTATAT [XGTACX_site5706] | 11 ± 0.71 |
| TGTAAGCACATACAAACACACAACATTATTTTTATC [CACACA_site2186] | 10 ± 0.11 |
| TAGTATAATATGAACACACACACACGCACAAAAAAA [CACACA_site7035] | 10.4 ± 0.2 |

| Sequence | gcPBM binding intensity (ln) |
| --- | --- |
| AAAGGAAAAATCCAAGTGCATTATTATTTTCACAAA [GTGCAC_site9995] | 9.835 ± 0.064 |
| ATCGTTATATAAAAATGTACTTATAAATTGTATACA [XGTACX_site6664] | 11.2 ± 0.83 |
| CAACATTTGATAAACACACAGAAGTATAAATATATA [CACACA_site2365] | 10.24 ± 0.035 |
| ATTTCTTTTTTATTGAGTACATATGACCATGTTCAA [XGTACX_site5365] | 11.5 ± 0.86 |
| AGTAATAAATAATTTACACACATATTATATCATCAC [CACACA_site1890] | 9.985 ± 0.049 |
| CATTTTAAAGAAAATACACACAAAAATAGATATATA [CACACA_site6773] | 10.18 ± 0.092 |
| TTTTTTTTTTTTTGATGTACAATTAATATTATAAAA [XGTACX_site6969] | 11.2 ± 1 |
| AAAAATATATAATAAAGTACACATAAATGAATAAAT [XGTACX_site329] | 11.5 ± 0.81 |
| GAAAAAAATGAAATTAGTACTTATCTTAAATTTTTA [XGTACX_site1018] | 10.8 ± 0.47 |
| AATAATTAAATAAGAGTGCATGAAACAGGAAATTTC | 10.16 ± 0.085 |
| TAATAAAAAATATATACACACAAATAAATAAATAAA [CACACA_site4037] | 9.77 ± 0.071 |
| AATAGTCGTGTGCATACACACCTTAACTATAATATA [CACACA_site6636] | 10.1 ± 0.2 |
| AGGTGCAAAAATAAAACATGCAAAAATAAAAATGAA [TGCATGCA_site502] | 10.07 ± 0.028 |
| TATATATGTTTTTATGTACACACTTTTAACCTAAGA [CACACA_site1149] | 11.6 ± 0.99 |
| ATGTCTAATTTTGATGCACACTTTTGTGCAATTAAA [CACACA_site5589] | 10.2 ± 0.3 |
| CGCATGCAATGTTAATGTACATATATATATATATGT [XGTACX_site3316] | 11.7 ± 0.64 |
| AAGAAATAAAGCAAAACATGCACTCGAAAATGTTTT [TGCATGCA_site1014] | 10.01 ± 0.092 |
| TATTGTTAAAATGAATAATTAAAACAGTAATGAATA [XGTACX_negctrl_site170] | 9.72 ± 0.13 |
